Test results reported in the supplement of paper PMC4967469.

Columns and labels:
Experiment in all cases: Viability of human cancer cell lines after 72 h of drug (GDSC screen)
AZD7762 = compound: NC(=O)Nc1cc(-c2cccc(F)c2)sc1C(=O)N[C@H]1CCCNC1 [AZD7762]; conditions: top dose 2 µM
Description: (§1)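 Human cancer cell lines in 384-well plates, medium with 10% serum, drug for 72 h over a 256-fold dose range (nine 2-fold or five 4-fold steps up to the top dose). Adherent lines were fixed and stained with the nucleic acid dye Syto60, suspension lines read with resazurin; signal relative to control wells, capped at 0 and 100%. One two-parameter sigmoid per drug and line, fitted in a mixed model over all curves with the slope shared within a line.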

GSK-650394 = compound: O=C(O)c1ccc(-c2c[nH]c3ncc(-c4ccccc4)cc23)cc1C1CCCC1 [GSK-650394]; conditions: top dose 16 µM; top dose inferred
Description: as §1

YK 4-279 = compound: COc1ccc(C(=O)CC2(O)C(=O)Nc3c(Cl)ccc(Cl)c32)cc1 [YK 4-279]; conditions: top dose 10 µM
Description: as §1

NPK76-II-72-1 = compound: COc1cc(C(=O)NC2CCN(C)CC2)ccc1Nc1ncc2c(n1)N(C1CCCC1)C(C)CC(=O)N2C [NPK76-II-72-1]; conditions: top dose 10.24 µM; top dose inferred
Description: as §1

Etoposide = compound: COc1cc([C@@H]2c3cc4c(cc3[C@@H](O[C@@H]3O[C@@H]5CO[C@@H](C)O[C@H]5[C@H](O)[C@H]3O)[C@H]3COC(=O)[C@H]23)OCO4)cc(OC)c1O [Etoposide]; conditions: top dose 16 µM
Description: as §1

Bexarotene = compound: C=C(c1ccc(C(=O)O)cc1)c1cc2c(cc1C)C(C)(C)CCC2(C)C [Bexarotene]; conditions: top dose 8 µM
Description: as §1

BMS-345541 = compound: Cc1ccc2nc(NCCN)c3ncc(C)n3c2c1 [BMS-345541]; conditions: top dose 16 µM
Description: as §1

XAV 939 = compound: Oc1nc(-c2ccc(C(F)(F)F)cc2)nc2c1CSCC2 [XAV 939]; conditions: top dose 5 µM; top dose inferred
Description: as §1

Question: Which AUC (AZD7762) does the source give for D-392MG (glioma, adherent) here?
Answer: The AUC was 0.681.

Question: What about the pIC50 (AZD7762) of the same cell line?
Answer: The pIC50 was 6.31.

Question: And the AUC (GSK-650394)?
Answer: The AUC was 0.905.

Question: What about the pIC50 (GSK-650394) of the same cell line?
Answer: Its pIC50 is < 4.80.

Question: What about the AUC (YK 4-279) of the same cell line?
Answer: Its AUC is 0.797.

Question: And the pIC50 (YK 4-279)?
Answer: The pIC50 was 5.17.

Question: And the AUC (NPK76-II-72-1)?
Answer: The AUC was 0.959.

Question: What about the pIC50 (NPK76-II-72-1) of the same cell line?
Answer: Its pIC50 is < 4.99.

Question: And the AUC (Etoposide)?
Answer: The AUC was 0.899.

Question: What about the pIC50 (Etoposide) of the same cell line?
Answer: The pIC50 was < 4.80.

Question: And the AUC (Bexarotene)?
Answer: Its AUC is 0.909.

Question: What about the pIC50 (Bexarotene) of the same cell line?
Answer: Its pIC50 is < 5.10.

Question: And the AUC (BMS-345541)?
Answer: Its AUC is 0.888.

Question: And the pIC50 (BMS-345541)?
Answer: Its pIC50 is < 4.80.

Question: And the AUC (XAV 939)?
Answer: Its AUC is 0.915.

Question: And the pIC50 (XAV 939)?
Answer: The pIC50 was < 5.30.

Question: Which AUC (AZD7762) does the source give for D-502MG (glioma, adherent) here?
Answer: Its AUC is 0.843.

Question: And the pIC50 (AZD7762)?
Answer: Its pIC50 is < 5.70.

Question: What about the AUC (GSK-650394) of the same cell line?
Answer: Its AUC is 0.973.

Question: And the pIC50 (GSK-650394)?
Answer: The pIC50 was < 4.80.

Question: What about the AUC (YK 4-279) of the same cell line?
Answer: Its AUC is 0.71.

Question: And the pIC50 (YK 4-279)?
Answer: The pIC50 was 5.46.

Question: What about the AUC (NPK76-II-72-1) of the same cell line?
Answer: The AUC was 0.965.

Question: What about the pIC50 (NPK76-II-72-1) of the same cell line?
Answer: Its pIC50 is < 4.99.

Question: And the AUC (Etoposide)?
Answer: Its AUC is 0.971.

Question: And the pIC50 (Etoposide)?
Answer: Its pIC50 is < 4.80.

Question: What about the AUC (Bexarotene) of the same cell line?
Answer: Its AUC is 0.973.

Question: And the pIC50 (Bexarotene)?
Answer: The pIC50 was < 5.10.

Question: And the AUC (BMS-345541)?
Answer: The AUC was 0.94.

Question: And the pIC50 (BMS-345541)?
Answer: Its pIC50 is < 4.80.

Question: And the AUC (XAV 939)?
Answer: The AUC was 0.874.

Question: What about the pIC50 (XAV 939) of the same cell line?
Answer: The pIC50 was < 5.30.

Question: D-542MG (glioma, adherent) was tested. Which AUC (AZD7762) did it give?
Answer: Its AUC is 0.848.

Question: And the pIC50 (AZD7762)?
Answer: The pIC50 was < 5.70.

Question: What about the AUC (GSK-650394) of the same cell line?
Answer: Its AUC is 0.984.

Question: And the pIC50 (GSK-650394)?
Answer: Its pIC50 is < 4.80.

Question: And the AUC (YK 4-279)?
Answer: The AUC was 0.764.

Question: And the pIC50 (YK 4-279)?
Answer: The pIC50 was 5.36.

Question: What about the AUC (NPK76-II-72-1) of the same cell line?
Answer: Its AUC is 0.968.

Question: What about the pIC50 (NPK76-II-72-1) of the same cell line?
Answer: The pIC50 was < 4.99.

Question: What about the AUC (Etoposide) of the same cell line?
Answer: Its AUC is 0.961.

Question: What about the pIC50 (Etoposide) of the same cell line?
Answer: The pIC50 was < 4.80.

Question: And the AUC (Bexarotene)?
Answer: Its AUC is 0.88.

Question: What about the pIC50 (Bexarotene) of the same cell line?
Answer: Its pIC50 is < 5.10.

Question: And the AUC (BMS-345541)?
Answer: The AUC was 0.983.

Question: And the pIC50 (BMS-345541)?
Answer: The pIC50 was < 4.80.

Question: And the AUC (XAV 939)?
Answer: The AUC was 0.982.

Question: What about the pIC50 (XAV 939) of the same cell line?
Answer: Its pIC50 is < 5.30.

Question: How did the AUC (AZD7762) turn out when DEL (lymphoid neoplasm, suspension) was run?
Answer: Its AUC is 0.464.

Question: What about the pIC50 (AZD7762) of the same cell line?
Answer: The pIC50 was 6.99.

Question: And the AUC (GSK-650394)?
Answer: Its AUC is 0.705.

Question: And the pIC50 (GSK-650394)?
Answer: Its pIC50 is 5.49.

Question: And the AUC (YK 4-279)?
Answer: Its AUC is 0.541.

Question: And the pIC50 (YK 4-279)?
Answer: The pIC50 was 6.10.

Question: And the AUC (NPK76-II-72-1)?
Answer: Its AUC is 0.919.

Question: What about the pIC50 (NPK76-II-72-1) of the same cell line?
Answer: The pIC50 was 5.00.

Question: What about the AUC (Etoposide) of the same cell line?
Answer: Its AUC is 0.315.

Question: And the pIC50 (Etoposide)?
Answer: Its pIC50 is 6.46.

Question: And the AUC (Bexarotene)?
Answer: The AUC was 0.993.

Question: And the pIC50 (Bexarotene)?
Answer: The pIC50 was < 5.10.

Question: What about the AUC (BMS-345541) of the same cell line?
Answer: Its AUC is 0.896.

Question: What about the pIC50 (BMS-345541) of the same cell line?
Answer: The pIC50 was 4.91.

Question: And the AUC (XAV 939)?
Answer: Its AUC is 0.988.

Question: And the pIC50 (XAV 939)?
Answer: The pIC50 was < 5.30.

Question: Which AUC (AZD7762) does the source give for DG-75 (Burkitt lymphoma, suspension) here?
Answer: The AUC was 0.459.

Question: And the pIC50 (AZD7762)?
Answer: Its pIC50 is 7.02.

Question: And the AUC (GSK-650394)?
Answer: The AUC was 0.979.

Question: And the pIC50 (GSK-650394)?
Answer: Its pIC50 is < 4.80.

Question: What about the AUC (YK 4-279) of the same cell line?
Answer: The AUC was 0.736.

Question: What about the pIC50 (YK 4-279) of the same cell line?
Answer: The pIC50 was 5.53.

Question: And the AUC (NPK76-II-72-1)?
Answer: Its AUC is 0.862.

Question: And the pIC50 (NPK76-II-72-1)?
Answer: Its pIC50 is 5.05.

Question: What about the AUC (Etoposide) of the same cell line?
Answer: The AUC was 0.926.

Question: What about the pIC50 (Etoposide) of the same cell line?
Answer: Its pIC50 is < 4.80.

Question: What about the AUC (Bexarotene) of the same cell line?
Answer: Its AUC is 0.983.

Question: And the pIC50 (Bexarotene)?
Answer: The pIC50 was < 5.10.

Question: And the AUC (BMS-345541)?
Answer: Its AUC is 0.74.

Question: And the pIC50 (BMS-345541)?
Answer: Its pIC50 is 5.31.

Question: And the AUC (XAV 939)?
Answer: The AUC was 0.97.

Question: What about the pIC50 (XAV 939) of the same cell line?
Answer: The pIC50 was < 5.30.

Question: What does the source list for “DMS-53 (small cell lung carcinoma, adherent)”?
Answer: AUC (AZD7762): 0.97; pIC50 (AZD7762): < 5.70; AUC (GSK-650394): 0.974; pIC50 (GSK-650394): < 4.80; AUC (YK 4-279): 0.895; pIC50 (YK 4-279): < 5.00; AUC (NPK76-II-72-1): 0.988; pIC50 (NPK76-II-72-1): < 4.99; AUC (Etoposide): 0.955; pIC50 (Etoposide): < 4.80; AUC (Bexarotene): 0.95; pIC50 (Bexarotene): < 5.10; AUC (BMS-345541): 0.964; pIC50 (BMS-345541): < 4.80; AUC (XAV 939): 0.954; pIC50 (XAV 939): < 5.30

Question: Which AUC (AZD7762) does the source give for “DMS-79 (small cell lung carcinoma, suspension)” here?
Answer: Its AUC is 0.797.

Question: And the pIC50 (AZD7762)?
Answer: The pIC50 was 5.95.

Question: What about the AUC (GSK-650394) of the same cell line?
Answer: Its AUC is 0.982.

Question: What about the pIC50 (GSK-650394) of the same cell line?
Answer: Its pIC50 is < 4.80.

Question: And the AUC (YK 4-279)?
Answer: Its AUC is 0.982.

Question: What about the pIC50 (YK 4-279) of the same cell line?
Answer: Its pIC50 is < 5.00.

Question: What about the AUC (NPK76-II-72-1) of the same cell line?
Answer: The AUC was 0.922.

Question: What about the pIC50 (NPK76-II-72-1) of the same cell line?
Answer: Its pIC50 is < 4.99.

Question: And the AUC (Etoposide)?
Answer: The AUC was 0.878.

Question: What about the pIC50 (Etoposide) of the same cell line?
Answer: Its pIC50 is < 4.80.

Question: And the AUC (Bexarotene)?
Answer: The AUC was 0.987.

Question: What about the pIC50 (Bexarotene) of the same cell line?
Answer: Its pIC50 is < 5.10.

Question: What about the AUC (BMS-345541) of the same cell line?
Answer: Its AUC is 0.897.

Question: What about the pIC50 (BMS-345541) of the same cell line?
Answer: The pIC50 was < 4.80.

Question: What about the AUC (XAV 939) of the same cell line?
Answer: Its AUC is 0.958.

Question: What about the pIC50 (XAV 939) of the same cell line?
Answer: Its pIC50 is < 5.30.

Question: Which results are given for DND-41 (T-cell leukaemia, suspension)?
Answer: AUC (AZD7762): 0.551; pIC50 (AZD7762): 6.77; AUC (GSK-650394): 0.822; pIC50 (GSK-650394): 5.10; AUC (YK 4-279): 0.792; pIC50 (YK 4-279): 5.41; AUC (NPK76-II-72-1): 0.469; pIC50 (NPK76-II-72-1): 6.27; AUC (Etoposide): 0.456; pIC50 (Etoposide): 6.11; AUC (Bexarotene): 0.957; pIC50 (Bexarotene): < 5.10; AUC (BMS-345541): 0.559; pIC50 (BMS-345541): 5.85; AUC (XAV 939): 0.98; pIC50 (XAV 939): < 5.30

pIC50: −log10 of the molar value. Lines with a small IC50 respond at low doses; a fit beyond the top or the lowest dose is shown as a bound at that dose. For AUC the same curve is integrated over the 256-fold range of doses and scaled to a fraction; values near 1 show little effect. For some assays here: Any top dose called inferred comes from the curve model; the source does not state it.
